Peptide text beside a SMILES is read from it. * marks the point of attachment. DOTA = O=C(O)CN1CCN(CC(=O)O)CCN(CC(=O)*)CCN(CC(=O)O)CC1; Ahx = NCCCCCC(=O)O

The values below come from patent publication US20240238459A1, “Granzyme-Activatable Membrane-Interacting Peptides and Methods of Use” (priority 2021, published 2024).

The assay relates to virus. The experiment in a line: PET and biodistribution in viral pneumonia model. The settings on record: 10 days post infection, 6 hours post radiotracer injection, vs sham. The text has this:
It was next evaluated whether ^64Cu-GRIP B PET can detect a productive immune response in a pneumonia model. In collaboration with the Looney lab at UCSF, mice received an intranasal instillation of virus or sham, and were imaged with ^64Cu-GRIP B at 10 days post infection (the time point at which peak recruitment of T cells to the lungs occurs). […] Moreover, high tracer uptake was noted on PET in other organs, for example the liver (*P<0.01). This unexpected finding led to a biodistribution study in lungs and other organs. […] Currently, granzyme B expression in these tissues is being confirmed using autoradiography and IF, and control studies (D-amino acid probe, imaging in germline granzyme B knockout mice) are being performed to confirm the pathogen induced changes in tracer biodistribution are driven by granzyme B.

Turning to `CC[C@H](C)[C@H](NC(=O)[C@H](CCCCN)NC(=O)CNC(=O)[C@H](CC(C)C)NC(=O)[C@H](Cc1ccccc1)NC(=O)[C@H](CCCCN)NC(=O)[C@H](CO)NC(=O)[C@H](Cc1ccccc1)NC(=O)[C@H](Cc1c[nH]c2ccccc12)NC(=O)[C@H](CCC(N)=O)NC(=O)[C@@H](NC(=O)[C@H](Cc1ccccc1)NC(=O)CCCCCNC(=O)CN1CCN(CC(=O)O)CCN(CC(=O)O)CCN(CC(=O)O)CC1)C(C)C)C(=O)N[C@@H](CCC(=O)O)C(=O)N1CCC[C@H]1C(=O)N[C@@H](CC(=O)O)C(=O)N[C@H](C(=O)N[C@@H](CO)C(=O)N[C@@H](CCC(N)=O)C(=O)N[C@H](C(=O)N[C@@H](CCC(N)=O)C(=O)N[C@@H](CC(=O)O)C(=O)N1CCC[C@H]1C(=O)N[C@@H](CC(N)=O)C(=O)N[C@@H](CC(=O)O)C(=O)N[C@@H](CCC(N)=O)C(=O)N[C@@H](Cc1ccc(O)cc1)C(=O)N[C@@H](CCC(=O)O)C(=O)N1CCC[C@H]1C(=O)N[C@@H](Cc1ccccc1)C(=O)O)C(C)C)C(C)C` [^64Cu-GRIP B, metal not drawn] ({DOTA-Ahx}-FVQWFSKFLGKIEPDVSQVQDPNDQYEPF-OH), the “radiotracer uptake in infected lungs” value was “very high and significantly different than healthy lungs”.
